In all, about 81,000 sequences were measured (“one-hybrid fitness for binding parS DNA”: median about -0.17, highest 2% from about 0.51 on). The list shows a part of the results.
B1: Caulobacter ParB omega fusion; a variant is named by its letters at X, in order, B8GW30 (parent)
chain: MESVVVGEPGMSEGRRGLGRGLSALLGEVDAAPAQAPGEQLGGSREAPIEILQRNPDQPRRTFREEDLEDLSNSIREKGVLQPILVRPSPDTAGEYQIVAGERAWRAAQRAGLKTVPIMVRELDDLAVLEIGIIENVQRADLNVLEEALSYKVLMEKFERTQENIAQTIGKSXSHVANXMRLLXLPDEVQSYLVSGELTAXHARAIAAAADPVALAKQIIEGGLSVRETEALARKAPNLSAGKSKGGRPPRVKDTDTQALESDLSSVLGLDVSIDHRGSTGTLTITYATLEQLDDLCNRLTRGI

Variants of: B1
Assay: one-hybrid fitness for binding parS DNA (scaled: cognate 1, non-cognate 0); higher = stronger binding
Conditions: with parS DNA site
Summary of the method: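 Caulobacter ParB libraries with four specificity codons randomised were screened by bacterial one-hybrid selection in the E. coli USO strain, using a HIS3 reporter whose site lies 19 bp from the promoter. Selection ran for 48 hours at 37°C on M9 lacking histidine, with 0.1 mM IPTG and 5 mM 3-AT. Plasmids were Illumina-sequenced before and after selection, three replicate libraries were pooled, and variants with under 10 reads were dropped. Fitness is the log change in each variant's read ratio to wild type, rescaled against the cognate and non-cognate sites.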

Variant | one-hybrid fitness for binding parS DNA
VTTW | ≤ 0.2
QFQY | ≤ 0.2
QYNR | ≤ 0.2
WFAC | ≤ 0.2
SRST | ≤ 0.2
LEYR | ≤ 0.2
HRMA | ≤ 0.2
LMTD | ≤ 0.2
MDQW | ≤ 0.2
GYQL | ≤ 0.2
NYDS | ≤ 0.2
FVCG | ≤ 0.2
RNDA | 0.354
QPML | ≤ 0.2
SPRF | ≤ 0.2
PANK | ≤ 0.2
AMPY | ≤ 0.2
HTTA | ≤ 0.2
NVPS | ≤ 0.2
LRSA | ≤ 0.2
KMMT | ≤ 0.2
HQKS | ≤ 0.2
IHHR | ≤ 0.2
ICTG | ≤ 0.2
TPIT | ≤ 0.2
VRRR | ≤ 0.2

Variant | one-hybrid fitness for binding parS DNA
WWMS | ≤ 0.2
LAMN | ≤ 0.2
QLAT | ≤ 0.2
CSEP | ≤ 0.2
QVPY | ≤ 0.2
HHFR | ≤ 0.2
QAAM | ≤ 0.2
GLLT | ≤ 0.2
QEYC | ≤ 0.2
QRQR | ≤ 0.2
FLPT | ≤ 0.2
HSSG | ≤ 0.2
NERG | ≤ 0.2
AGAA | ≤ 0.2
PYHN | ≤ 0.2
ATVA | ≤ 0.2
SGKT | ≤ 0.2
SHTS | ≤ 0.2
RRLC | 0.669
RPQP | ≤ 0.2
HKPW | ≤ 0.2
TIRS | ≤ 0.2
SACI | ≤ 0.2
MTAL | ≤ 0.2
PRIR | ≤ 0.2
RDSC | ≤ 0.2

Variant | one-hybrid fitness for binding parS DNA
THQV | ≤ 0.2
ANSN | ≤ 0.2
SHIE | ≤ 0.2
TKMS | ≤ 0.2
HPGY | ≤ 0.2
CGFS | ≤ 0.2
YCAT | ≤ 0.2
AESL | ≤ 0.2
HTPI | ≤ 0.2
HAQD | ≤ 0.2
VRNW | ≤ 0.2
QSVA | ≤ 0.2
NQPK | ≤ 0.2
LTII | ≤ 0.2
HNPD | ≤ 0.2
GGSI | ≤ 0.2
INRG | ≤ 0.2
PGRV | ≤ 0.2
WLVP | ≤ 0.2
QHCT | ≤ 0.2
NYSL | ≤ 0.2
TKSD | ≤ 0.2
LVPH | ≤ 0.2
HALD | ≤ 0.2
CLNG | ≤ 0.2
TDPD | ≤ 0.2

Variant | one-hybrid fitness for binding parS DNA
FLII | ≤ 0.2
GILL | ≤ 0.2
YTRR | ≤ 0.2
HTLR | ≤ 0.2
QYVA | ≤ 0.2
STNL | ≤ 0.2
SCSG | ≤ 0.2
QGTK | ≤ 0.2
NLTV | ≤ 0.2
KLYR | ≤ 0.2
RWHP | ≤ 0.2
HAAE | ≤ 0.2
MEGR | ≤ 0.2
LMFG | ≤ 0.2
KVKL | ≤ 0.2
IITR | ≤ 0.2
RRLF | ≤ 0.2
KGSG | ≤ 0.2
PNHY | ≤ 0.2
HSCY | ≤ 0.2
RQLY | 0.442
GLGS | ≤ 0.2
CSDT | ≤ 0.2
PQSF | ≤ 0.2
KWAL | ≤ 0.2
QRCQ | ≤ 0.2

Variant | one-hybrid fitness for binding parS DNA
RRKN | 0.84
HLGA | ≤ 0.2
PADC | ≤ 0.2
TPQA | ≤ 0.2
AGDV | ≤ 0.2
PDCS | ≤ 0.2
GGWG | ≤ 0.2
RHVM | ≤ 0.2
EHNI | ≤ 0.2
DDVN | ≤ 0.2
LSLP | ≤ 0.2
TWVG | ≤ 0.2
SPCG | ≤ 0.2
IFPS | ≤ 0.2
NTVC | ≤ 0.2
HHHT | ≤ 0.2
YTNV | ≤ 0.2
GARN | ≤ 0.2
DTSL | ≤ 0.2
TLWR | ≤ 0.2
QGSY | ≤ 0.2
PHYE | ≤ 0.2
YYHS | ≤ 0.2
AFRC | ≤ 0.2
PHQA | ≤ 0.2
DACM | ≤ 0.2

Variant | one-hybrid fitness for binding parS DNA
HDKY | ≤ 0.2
MQRN | ≤ 0.2
ITAG | ≤ 0.2
PNHN | ≤ 0.2
QQAW | ≤ 0.2
CFAY | ≤ 0.2
ESQS | ≤ 0.2
KVGS | ≤ 0.2
NMKS | ≤ 0.2
RFEY | 0.349
CCLD | ≤ 0.2
LAMT | ≤ 0.2
YMKR | ≤ 0.2
EAKS | ≤ 0.2
ISIM | ≤ 0.2
KEQG | ≤ 0.2
KHAD | ≤ 0.2
RNYD | ≤ 0.2
STDV | ≤ 0.2
QHTL | ≤ 0.2
SARR | ≤ 0.2
QTWE | ≤ 0.2
QGRM | ≤ 0.2

Source: a collection of fitness landscapes (doi:10.1016/j.celrep.2020.107928)
